These are yes or no findings as the source states them, for the method shown. Some results given as binding are weak or reduced against the parent protein; the word gives no strength. Tags and fused reporters may be left off the sequences shown. Values belong to the molecule of their own block, whether it stands above or below them.
How the values were obtained:
Assay in all cases: two-hybrid; Matchmaker GAL4 system (Clontech), bait pGBKT7, prey pGADT7, yeast AH109; growth on SD -Leu/-Trp/-His/-Ade in serial dilutions
[1] = biological target: T1, BD-AtCGL160N (AtCGL160 29–206 aa fused to the GAL4 DNA-binding domain) (Arabidopsis thaliana) (UniProt O82279)
T1 sequence: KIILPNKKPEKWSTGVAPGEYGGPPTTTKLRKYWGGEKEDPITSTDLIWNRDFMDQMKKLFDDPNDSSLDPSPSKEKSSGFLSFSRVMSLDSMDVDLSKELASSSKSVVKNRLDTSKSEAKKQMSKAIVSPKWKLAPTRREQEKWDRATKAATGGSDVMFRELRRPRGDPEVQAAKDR

By UniProt entry, the sequences of proteins in these tests, tags left out.
UniProt P56757: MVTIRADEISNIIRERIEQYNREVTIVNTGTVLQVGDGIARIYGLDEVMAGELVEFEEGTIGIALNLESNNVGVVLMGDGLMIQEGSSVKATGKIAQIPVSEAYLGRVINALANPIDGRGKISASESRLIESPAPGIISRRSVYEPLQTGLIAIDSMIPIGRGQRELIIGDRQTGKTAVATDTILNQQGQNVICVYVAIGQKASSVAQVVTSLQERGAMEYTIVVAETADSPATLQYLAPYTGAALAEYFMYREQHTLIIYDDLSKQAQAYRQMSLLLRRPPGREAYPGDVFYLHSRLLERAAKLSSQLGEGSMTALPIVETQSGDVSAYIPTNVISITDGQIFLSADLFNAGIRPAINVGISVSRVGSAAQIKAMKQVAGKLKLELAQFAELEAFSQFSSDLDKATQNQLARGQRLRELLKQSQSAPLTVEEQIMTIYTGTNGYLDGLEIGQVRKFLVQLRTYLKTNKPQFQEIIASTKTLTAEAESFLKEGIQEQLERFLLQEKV
UniProt P19366: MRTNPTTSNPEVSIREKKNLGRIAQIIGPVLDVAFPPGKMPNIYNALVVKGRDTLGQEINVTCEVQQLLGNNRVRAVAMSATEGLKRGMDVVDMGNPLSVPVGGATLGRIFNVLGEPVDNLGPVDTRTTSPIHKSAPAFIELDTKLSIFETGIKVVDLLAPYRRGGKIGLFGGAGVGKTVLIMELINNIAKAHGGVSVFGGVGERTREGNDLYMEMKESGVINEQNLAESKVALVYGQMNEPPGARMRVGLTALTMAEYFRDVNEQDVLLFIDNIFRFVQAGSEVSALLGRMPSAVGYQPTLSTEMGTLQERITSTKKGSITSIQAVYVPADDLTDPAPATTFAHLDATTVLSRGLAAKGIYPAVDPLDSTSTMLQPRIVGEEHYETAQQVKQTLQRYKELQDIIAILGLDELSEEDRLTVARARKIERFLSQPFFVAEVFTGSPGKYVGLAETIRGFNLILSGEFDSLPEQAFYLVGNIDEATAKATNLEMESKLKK

[2] = biological target: T2, BD-AtCGL160N Δ106–134 (Arabidopsis thaliana) (UniProt O82279)
T2 sequence: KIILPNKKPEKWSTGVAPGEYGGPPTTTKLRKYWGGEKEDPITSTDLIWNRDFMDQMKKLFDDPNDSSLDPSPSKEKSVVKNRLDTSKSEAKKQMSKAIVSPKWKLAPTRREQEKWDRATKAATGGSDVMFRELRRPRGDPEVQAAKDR

[3] = biological target: T3, BD-AtCGL160N Δ135–160 (Arabidopsis thaliana) (UniProt O82279)
T3 sequence: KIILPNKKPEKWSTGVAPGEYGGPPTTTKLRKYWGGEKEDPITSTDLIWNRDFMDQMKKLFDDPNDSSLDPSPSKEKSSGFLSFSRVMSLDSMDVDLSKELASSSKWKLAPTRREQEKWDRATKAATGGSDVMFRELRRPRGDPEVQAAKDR

[4] = biological target: T4, BD-AtCGL160N Δ161–206 (Arabidopsis thaliana) (UniProt O82279)
T4 sequence: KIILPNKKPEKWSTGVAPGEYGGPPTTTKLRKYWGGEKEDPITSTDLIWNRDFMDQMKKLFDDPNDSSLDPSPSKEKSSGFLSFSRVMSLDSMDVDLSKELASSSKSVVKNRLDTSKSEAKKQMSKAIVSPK

[5] = biological target: T5, BD-AtCGL160N Δ29–73 (Arabidopsis thaliana) (UniProt O82279)
T5 sequence: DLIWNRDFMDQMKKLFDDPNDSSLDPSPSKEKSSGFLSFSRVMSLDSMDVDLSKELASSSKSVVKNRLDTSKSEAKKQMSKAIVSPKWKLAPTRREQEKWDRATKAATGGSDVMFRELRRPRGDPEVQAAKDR

[6] = biological target: T6, BD-AtCGL160N Δ74–105 (Arabidopsis thaliana) (UniProt O82279)
T6 sequence: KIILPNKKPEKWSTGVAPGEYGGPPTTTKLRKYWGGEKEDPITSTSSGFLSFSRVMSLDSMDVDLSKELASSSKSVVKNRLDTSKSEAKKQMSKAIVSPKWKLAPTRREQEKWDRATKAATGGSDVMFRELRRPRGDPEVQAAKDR

- binding [1]: no binding
Molecule: AD-CF1-α (from UniProt P56757 1-507)

- binding [1]: binds
- binding [2]: binds
- binding [3]: binds
- binding [4]: binds
- binding [5]: no binding
- binding [6]: no binding
Molecule: AD-CF1-β (from UniProt P19366 1-498)

- binding [1]: no binding
B1: AD-CFO-b (soluble domain, 51–184 aa) (domain or fragment, UniProt P56759 51-184)
chain: DLLDNRKQRILNTIRNSEELREGAIQQLENARARLRNVETEADKFRVNGYSEIEREKLNLINSTYKTLKQLENYKNETILFEQQRTINQVRERVFQQALQGAIGTLNSCLSNELHLRTINANIGMFGTMKEITD

- binding [1]: no binding
B2: AD-CF1-ε (protein, UniProt P09468 1-132)
chain: MTLNLCVLTPNRIVWDSEVKEIILSTNSGQIGVLANHAPIATAVDIGILKIRLANQWLTMALMGGFARIGNNEITILVNDAEKNSDIDPQEAQQTLEIAEANLRKAEGKRQTIEANLALRRARTRVEALNTI

— paper PMC9806626
